# pIC50: −log10 of the molar value. By IC50 is meant the dose at which the fit gives 50% viability; a fit beyond the top or the lowest dose is shown as a bound at that dose. AUC sums up the same curve from the lowest dose to the 256-fold higher top dose: 1 means no effect, lower means more sensitive. An inferred top dose comes from the curve model; the source does not state it.
# Compound: COc1ncc(-c2ccc3nccc(-c4ccnnc4)c3c2)cc1NS(=O)(=O)c1ccc(F)cc1F [GSK2126458]
# Assay: Viability of human cancer cell lines after 72 h of drug (GDSC screen)
# Details: top dose inferred
# Procedure: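 Human cancer cell lines in 384-well plates, medium with 10% serum, drug for 72 h over a 256-fold dose range (nine 2-fold or five 4-fold steps up to the top dose). Adherent lines were fixed and stained with the nucleic acid dye Syto60, suspension lines read with resazurin; signal relative to control wells, capped at 0 and 100%. One two-parameter sigmoid per drug and line, fitted in a mixed model over all curves with the slope shared within a line.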
Cell Line,AUC,pIC50
"CESS (acute myeloid leukaemia, suspension, top dose 0.128 µM)",0.323,8.55
"CFPAC-1 (pancreas, adherent, top dose 0.128 µM)",0.846,6.94
"CGTH-W-1 (thyroid, adherent, top dose 0.128 µM)",0.55,7.96
"CHL-1 (melanoma, adherent, top dose 0.128 µM)",0.52,8.04
"CHP-126 (neuroblastoma, suspension, top dose 0.128 µM)",0.911,< 6.89
"CHP-134 (neuroblastoma, suspension, top dose 0.128 µM)",0.86,< 6.89
"CHP-212 (neuroblastoma, adherent, top dose 0.128 µM)",0.904,< 6.89
"CHSA0011 (chondrosarcoma, adherent, top dose 0.128 µM)",0.865,< 6.89
"CHSA0108 (chondrosarcoma, adherent, top dose 0.128 µM)",0.934,< 6.89
"CHSA8926 (chondrosarcoma, adherent, top dose 0.128 µM)",0.934,< 6.89
"CL-11 (large intestine, adherent, top dose 0.128 µM)",0.965,< 6.89
"CMK (acute myeloid leukaemia, suspension, top dose 0.128 µM)",0.342,8.50
"COLO-205 (large intestine, suspension, top dose 0.128 µM)",0.781,7.28
"COLO-320-HSR (large intestine, suspension, top dose 0.128 µM)",0.834,7.17
"COLO-668 (small cell lung carcinoma, adherent, top dose 0.128 µM)",0.701,7.53
"COLO-678 (large intestine, semi-adherent, top dose 0.128 µM)",0.948,< 6.89
"COLO-679 (melanoma, adherent, top dose 0.128 µM)",0.845,6.96
"COLO-680N (oesophagus, adherent, top dose 0.128 µM)",0.868,< 6.89
"COLO-684 (endometrium, suspension, top dose 0.128 µM)",0.356,8.52
"COLO-783 (melanoma, adherent, top dose 0.128 µM)",0.964,< 6.89
"COLO-792 (melanoma, adherent, top dose 0.128 µM)",0.618,7.77
"COLO-800 (melanoma, adherent, top dose 0.128 µM)",0.639,7.72
"COLO-824 (breast, adherent, top dose 0.128 µM)",0.89,< 6.89
"COLO-829 (melanoma, adherent, top dose 0.128 µM)",0.69,7.45
"COR-L23 (large cell lung carcinoma, adherent, top dose 0.128 µM)",0.548,7.97
"COR-L88 (small cell lung carcinoma, adherent, top dose 0.128 µM)",0.9,< 6.89

Cell Line,AUC,pIC50
"COR-L95 (small cell lung carcinoma, adherent, top dose 0.128 µM)",0.843,6.95
"COR-L105 (lung adenocarcinoma, adherent, top dose 0.128 µM)",0.573,7.88
"COR-L279 (small cell lung carcinoma, suspension, top dose 0.128 µM)",0.489,8.12
"COR-L303 (small cell lung carcinoma, suspension, top dose 0.128 µM)",0.552,7.96
"COR-L311 (small cell lung carcinoma, suspension, top dose 0.128 µM)",0.421,8.32
"COR-L321 (lung, suspension, top dose 0.128 µM)",0.774,7.30
"CP50-MEL-B (melanoma, adherent, top dose 0.128 µM)",0.854,7.00
"CP66-MEL (melanoma, adherent, top dose 0.128 µM)",0.898,< 6.89
"CPC-N (small cell lung carcinoma, suspension, top dose 0.128 µM)",0.765,7.29
"CS1 (bone, adherent, top dose 0.128 µM)",0.709,7.47
"CTB-1 (B-cell lymphoma, suspension, top dose 0.128 µM)",0.614,7.74
"CTV-1 (acute myeloid leukaemia, suspension, top dose 1.024 µM)",0.614,6.91
"CW-2 (large intestine, adherent, top dose 1.024 µM)",0.894,< 5.99
"Ca9-22 (head and neck, adherent, top dose 0.128 µM)",0.774,7.33
"Ca-Ski (cervix, adherent, top dose 0.128 µM)",0.398,8.39
"CaR-1 (large intestine, adherent, top dose 0.128 µM)",0.837,< 6.89
"Calu-3 (lung adenocarcinoma, adherent, top dose 0.128 µM)",0.465,8.20
"Calu-6 (lung adenocarcinoma, adherent, top dose 1.024 µM)",0.719,6.53
"Caov-3 (ovary, adherent, top dose 0.128 µM)",0.828,7.18
"Caov-4 (ovary, adherent, top dose 0.128 µM)",0.901,< 6.89
"Capan-2 (pancreas, adherent, top dose 0.128 µM)",0.865,< 6.89
"ChaGo-K-1 (non-small cell lung carcinoma, adherent, top dose 0.128 µM)",0.931,< 6.89
"D-247MG (glioma, adherent, top dose 0.128 µM)",0.118,> 9.30
"D-263MG (glioma, adherent, top dose 0.128 µM)",0.977,< 6.89
"D-283MED (medulloblastoma, adherent, top dose 0.128 µM)",0.991,< 6.89
"D-336MG (glioma, adherent, top dose 0.128 µM)",0.53,8.00

Cell Line,AUC,pIC50
"D-392MG (glioma, adherent, top dose 0.128 µM)",0.811,7.00
"D-423MG (glioma, adherent, top dose 0.128 µM)",0.465,8.20
"D-502MG (glioma, adherent, top dose 0.128 µM)",0.638,7.62
"D-542MG (glioma, adherent, top dose 0.128 µM)",0.883,< 6.89
"D-566MG (glioma, adherent, top dose 0.128 µM)",0.51,8.07
"DAN-G (pancreas, adherent, top dose 0.128 µM)",0.671,7.65
"DB (B-cell lymphoma, suspension, top dose 0.128 µM)",0.865,< 6.89
"DBTRG-05MG (glioma, adherent, top dose 0.128 µM)",0.755,7.30
"DEL (lymphoid neoplasm, suspension, top dose 0.128 µM)",0.882,7.06
"DG-75 (Burkitt lymphoma, suspension, top dose 0.128 µM)",0.904,< 6.89
"DJM-1 (skin, adherent, top dose 0.128 µM)",0.871,6.93
"DK-MG (glioma, adherent, top dose 0.128 µM)",0.739,7.26
"DMS-53 (small cell lung carcinoma, adherent, top dose 0.128 µM)",0.974,< 6.89
"DMS-79 (small cell lung carcinoma, suspension, top dose 0.128 µM)",0.843,6.95
"DMS-114 (small cell lung carcinoma, adherent, top dose 0.128 µM)",0.531,8.01
"DMS-273 (small cell lung carcinoma, adherent, top dose 0.128 µM)",0.472,8.18
"DND-41 (T-cell leukaemia, suspension, top dose 0.128 µM)",0.823,7.19
"DOK (head and neck, adherent, top dose 0.128 µM)",0.657,7.57
"DOV13 (ovary, adherent, top dose 0.128 µM)",0.976,< 6.89
"DSH1 (bladder, adherent, top dose 0.128 µM)",0.777,7.31
"DU-145 (prostate, adherent, top dose 0.128 µM)",0.961,< 6.89
"DU-4475 (breast, suspension, top dose 0.128 µM)",0.78,7.37
"Daoy (medulloblastoma, adherent, top dose 0.128 µM)",0.539,8.00
"Daudi (Burkitt lymphoma, suspension, top dose 0.128 µM)",0.497,8.10
"Detroit562 (head and neck, adherent, top dose 0.128 µM)",0.871,6.95
"DoTc2-4510 (cervix, adherent, top dose 0.128 µM)",0.891,< 6.89
